The full ranking holds about 33,000 sequences; the median of “E-score (-0.5 to 0.5)” is about -0.017, and the highest 2% start at about 0.3. Some of the results follow.
Biological target: T1, Sut1 (UniProt P53032)
T1 sequence: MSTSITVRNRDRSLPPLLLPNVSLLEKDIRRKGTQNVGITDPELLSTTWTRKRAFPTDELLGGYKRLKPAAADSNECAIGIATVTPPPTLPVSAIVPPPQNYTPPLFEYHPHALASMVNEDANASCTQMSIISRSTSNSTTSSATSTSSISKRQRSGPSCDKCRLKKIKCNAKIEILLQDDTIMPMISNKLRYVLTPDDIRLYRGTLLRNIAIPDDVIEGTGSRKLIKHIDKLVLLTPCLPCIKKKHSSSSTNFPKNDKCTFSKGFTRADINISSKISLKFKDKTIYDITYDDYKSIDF
Test: PBM E-score (8-mer binding enrichment) (E-score (-0.5 to 0.5)); higher = stronger / more preferred TF binding; most listed sequences are background and not binding sites
Settings: protein concentration: 200 nM; construct: GST-full length
How it was run: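 GST-tagged yeast TFs (full-length or DNA-binding domain) were made by PURExpress in vitro transcription/translation and applied at about 100-200 nM to universal all-10-mer Agilent arrays. The arrays were made double-stranded by primer extension, on fresh or once-stripped slides. Bound protein was detected with fluorescent anti-GST, and scans were normalised with masliner. Each ungapped eight-base word, pooled with its reverse complement, received an E-score (modified Wilcoxon-Mann-Whitney statistic) from the Universal PBM Analysis Suite.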

| Sequence | PBM E-score |
| --- | --- |
| ATGCACAT | 0.0983 |
| ACTTCCAA | -0.0599 |
| ACCAGGGA | -0.251 |
| CCGGGGAG | -0.0154 |
| ACTAGAAT | 0.167 |
| AACTATGT | 0.0733 |
| AATCAAGT | 0.212 |
| ATAATGTC | 0.128 |
| AGTACAGG | -0.0282 |
| GCGAAAGC | -0.0992 |
| AAAGAAGG | 0.0158 |
| AGCATTTG | -0.112 |
| CGGCTGGC | -0.0651 |
| CCGTAACA | 0.0386 |
| ACTTCCCA | 0.0315 |
| CCTGTAAG | -0.0842 |
| GCATCAAC | -0.112 |
| AAAATTTA | 0.233 |
| CGAAAAAG | 0.123 |
| ACGCCCGA | -0.115 |
| ACCGGCGG | -0.0437 |
| CCTTTAAG | -0.00623 |
| TATTGAGA | 0.176 |
| GTAAGTCA | 0.0901 |
| ACTGGCGG | 0.0197 |

| Sequence | PBM E-score |
| --- | --- |
| ACAGAGAA | -0.0551 |
| CGGCCGAC | 0.0666 |
| CTAGGTGC | -0.148 |
| GTGGAAGA | 0.025 |
| CGACCGGA | 0.191 |
| CCAGTAAA | 0.0224 |
| GACTCTAA | 0.168 |
| TCATCCCA | -0.123 |
| AGTATTCA | 0.15 |
| TACATCCA | 0.113 |
| CGCGGTAC | -0.0865 |
| TCATAAGA | 0.0411 |
| ACCGAGTG | -0.183 |
| TAATTTCA | 0.346 |
| CCTGGGCC | -0.165 |
| AGGCTGCG | -0.0636 |
| ACCAAAAG | 0.0306 |
| GGGGCATA | -0.179 |
| AATGCAGC | -0.182 |
| CCGGATAG | 0.252 |
| CGGTTGTA | -0.108 |
| TGATGCCA | -0.0517 |
| ATTCAAAA | 0.266 |
| CGGCGAAC | 0.11 |
| CTTTGTGC | -0.123 |

| Sequence | PBM E-score |
| --- | --- |
| TCCACTCA | -0.0676 |
| AGTTATGA | 0.119 |
| ATCGAGTA | -0.0459 |
| CCGCATTA | 0.0646 |
| ATACCCTC | -0.047 |
| AAAATAAA | 0.347 |
| GTTGAGGA | -0.0729 |
| GTGTGCGA | -0.19 |
| CGGTCGAC | 0.0158 |
| ATGTCAGC | -0.0772 |
| ACGGTTCT | -0.108 |
| AGCCGGGA | -0.0702 |
| CTACTTTC | 0.068 |
| ATGTTCTC | 0.0619 |
| AACGGACG | 0.0275 |
| CGCGGCGA | 0.0609 |
| AGAGTGAT | 0.0184 |
| GTTAATTA | 0.232 |
| CTTTAACA | 0.202 |
| CTATTAGA | -0.0266 |
| CCAATAGG | -0.014 |
| ATGGTCTA | -0.197 |
| GAAACGTC | 0.0294 |
| TCTGAACA | 0.0412 |
| AAGTTACC | 0.158 |

| Sequence | PBM E-score |
| --- | --- |
| CTACGAAC | -0.0108 |
| CCGGCCCA | -0.149 |
| CCCGATAC | -0.0666 |
| GTGCCAAA | -0.0416 |
| AAATATCA | 0.161 |
| ATACAGAT | 0.0934 |
| CTCGCATA | -0.00352 |
| ACTAGTCA | -0.0865 |
| AAGGGTTG | 0.0138 |
| AAACTGTC | -0.13 |
| AACTGCCT | 0.0307 |
| CTTGTTAA | 0.175 |
| CGTACGAA | 0.0666 |
| ATCCCCTC | -0.245 |
| GAAGAAGA | 0.0297 |
| CTGCTGTA | -0.0764 |
| GAGATGTA | 0.112 |
| CCTGCTTA | -0.254 |
| AAACTGCT | -0.127 |
| CGGGGTGC | 0.00192 |
| CTACGGTA | -0.0188 |
| AGCGAAGA | 0.00195 |
| AAGCTCCG | 0.455 |
| TCGTCAAA | 0.201 |
| CCCGTTAC | 0.0635 |

| Sequence | PBM E-score |
| --- | --- |
| AAACACAG | 0.154 |
| GATTTTCC | 0.104 |
| AAACTGAC | -0.151 |
| ACTAATAG | 0.176 |
| GTACTGTA | -0.0605 |
| ATGGCGAC | -0.123 |
| TCGGTCCA | -0.213 |
| ACGAACTA | 0.0258 |
| CTCTTCAA | -0.0699 |
| GACACCGA | 0.0441 |
| AGCAGCTA | 0.0365 |
| AACCCACC | -0.173 |
| CACTCAGG | -0.21 |
| AACATAAG | 0.162 |
| GATACTTA | -0.111 |
| CCAATCGA | -0.119 |
| ATGTTAAC | 0.035 |
| AAGCCATG | -0.0848 |
| ATCTACTA | 0.204 |
| AGTCTCAG | -0.0583 |
| ACTGTTTA | 0.0544 |
| GAGCACAC | -0.12 |
| ATCTCGCG | 0.0484 |
| CTTCCAAG | -0.0318 |
| GTTGCATA | -0.0388 |

| Sequence | PBM E-score |
| --- | --- |
| TGGCAGAA | -0.0838 |
| CCCTGTTC | -0.17 |
| CGAATCTA | 0.00256 |
| GATCCCCA | -0.233 |
| CAACTGGG | -0.244 |
| AGCATGCC | -0.287 |
| GGAAGTCA | -0.0083 |
| AGTGCCTG | 0.0223 |
| CACGCTAA | -0.0612 |
| CGCCCGCA | -0.112 |
| AATGCTTA | -0.1 |
| AAACGAGA | 0.129 |
| GGGGTCAA | -0.0104 |
| CAGTTAAC | 0.091 |
| AGGCATGG | -0.233 |
| ACCCATAA | 0.05 |
| GCTGCCCC | -0.363 |
| AGATCGAG | 0.0147 |
| GCCCCCTA | -0.247 |
| AATCTTGA | 0.0302 |
| ATTCGTTA | 0.0408 |
| ATTTTCCG | 0.4 |
| CGTAAATA | 0.22 |
| ATTGAGCG | 0.082 |
| CGGACTGC | 0.377 |

| Sequence | PBM E-score |
| --- | --- |
| AATGCATG | 0.0341 |
| ACTTTCTC | 0.128 |
| GCCCGGTA | -0.187 |
| GGTTTCAA | 0.191 |
| GTCGATCA | -0.0696 |
| AATAGAAC | 0.219 |
| GCGTTGAA | 0.0644 |
| CCGCGCCA | -0.0442 |
| CAGTTGAC | -0.00714 |
| ACACCGTC | -0.0512 |
| AGCGCCCG | -0.216 |
| CTTGGGAA | -0.0313 |
| CACGGCCC | -0.26 |
| CTAGTAGA | 0.0133 |
| CCTAACCC | -0.21 |
| GTCAGGAC | -0.206 |
| AACTAGAA | 0.188 |
| ACGATGCT | -0.105 |
| ATTTTCGA | 0.0872 |
| GATGTCCC | -0.0228 |
| GTGGTCTA | -0.033 |
| GCCTTAGC | 0.0421 |

From the supplement of paper PMC3334620
